The list shows a part of the results.
Key:
Experiment in all cases: glycan array binding signal (z-score within array); higher = stronger binding
Settings in all cases: glycan notation: IUPAC condensed, linker removed
[1] = target: Fuc(a1-2)Gal
Method in brief: (§1)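 Glycan array binding is given as a within-array Z-score, which can be read as non-binding when negative. The arrays, 3228 of them, came from the Consortium for Functional Glycomics database and were retained only where the protein sequence was available. Z-scores were averaged across arrays of the same protein sequence at different concentrations or buffers and across linkers.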

[2] = target: Fuc(a1-2)Gal(b1-3)GalNAc
Method in brief: as §1

[3] = target: Fuc(a1-2)Gal(b1-3)GalNAc(a1-3)[Fuc(a1-2)]Gal(b1-4)Glc
Method in brief: as §1

[4] = target: Fuc(a1-2)Gal(b1-3)GalNAc(a1-3)[Fuc(a1-2)]Gal(b1-4)GlcNAc
Method in brief: as §1

[5] = target: Fuc(a1-2)Gal(b1-3)GalNAc(b1-3)Gal
Method in brief: as §1

[6] = target: Fuc(a1-2)Gal(b1-3)GalNAc(b1-3)Gal(a1-4)Gal(b1-4)Glc
Method in brief: as §1

[7] = target: Fuc(a1-2)Gal(b1-3)GalNAc(b1-4)[Neu5Ac(a2-3)]Gal(b1-4)Glc
Method in brief: as §1

[8] = target: Fuc(a1-2)Gal(b1-3)GlcNAc
Method in brief: as §1

[9] = target: Fuc(a1-2)Gal(b1-3)GlcNAc(b1-2)Man(a1-3)[Fuc(a1-2)Gal(b1-3)GlcNAc(b1-2)Man(a1-6)]Man(b1-4)GlcNAc(b1-4)GlcNAc
Method in brief: as §1

[10] = target: Fuc(a1-2)Gal(b1-3)GlcNAc(b1-2)Man(a1-3)[Fuc(a1-2)Gal(b1-3)GlcNAc(b1-2)Man(a1-6)]Man(b1-4)GlcNAc(b1-4)[Fuc(a1-6)]GlcNAc
Method in brief: as §1

[11] = target: Fuc(a1-2)Gal(b1-3)GlcNAc(b1-3)Gal(b1-4)Glc
Method in brief: as §1

[12] = target: Fuc(a1-2)Gal(b1-3)GlcNAc(b1-3)GalNAc
Method in brief: as §1

[13] = target: Fuc(a1-2)Gal(b1-3)GlcNAc(b1-3)[Fuc(a1-2)Gal(b1-3)GlcNAc(b1-6)]GalNAc
Method in brief: as §1

[14] = target: Fuc(a1-2)Gal(b1-3)GlcNAc(b1-3)[Gal(b1-4)GlcNAc(b1-6)]Gal(b1-4)Glc
Method in brief: as §1

[15] = target: Fuc(a1-2)Gal(b1-3)GlcNAc(b1-3)[Neu5Ac(a2-6)Gal(b1-4)GlcNAc(b1-6)]Gal(b1-4)Glc
Method in brief: as §1

[16] = target: Fuc(a1-2)Gal(b1-3)GlcNAc6S
Method in brief: as §1

[17] = target: Fuc(a1-2)Gal(b1-3)[Fuc(a1-4)]GlcNAc
Method in brief: as §1

[18] = target: Fuc(a1-2)Gal(b1-3)[Fuc(a1-4)]GlcNAc(b1-2)Man(a1-3)[Fuc(a1-2)Gal(b1-3)[Fuc(a1-4)]GlcNAc(b1-2)Man(a1-3)]Man(b1-4)GlcNAc(b1-4)GlcNAc
Method in brief: as §1

[19] = target: Fuc(a1-2)Gal(b1-3)[Fuc(a1-4)]GlcNAc(b1-2)Man(a1-3)[Fuc(a1-2)Gal(b1-3)[Fuc(a1-4)]GlcNAc(b1-2)Man(a1-6)]Man(b1-4)GlcNAc(b1-4)[Fuc(a1-6)]GlcNAc(b1-4)[Fuc(a1-6)]GlcNAc
Method in brief: as §1

[20] = target: Fuc(a1-2)Gal(b1-3)[Fuc(a1-4)]GlcNAc(b1-3)[Fuc(a1-3)[Gal(b1-4)]GlcNAc(b1-6)]Gal(b1-4)Glc
Method in brief: as §1

[21] = target: Fuc(a1-2)Gal(b1-3)[Fuc(a1-4)]GlcNAc(b1-3)[Gal(b1-4)GlcNAc(b1-6)]Gal(b1-4)Glc
Method in brief: as §1

[22] = target: Fuc(a1-2)Gal(b1-4)Glc
Method in brief: as §1

[23] = target: Fuc(a1-2)Gal(b1-4)Glc6S
Method in brief: as §1

[24] = target: Fuc(a1-2)Gal(b1-4)GlcNAc
Method in brief: as §1

[25] = target: Fuc(a1-2)Gal(b1-4)GlcNAc(b1-2)Man
Method in brief: as §1

[26] = target: Fuc(a1-2)Gal(b1-4)GlcNAc(b1-2)Man(a1-3)[Fuc(a1-2)Gal(b1-4)GlcNAc(b1-2)Man(a1-6)]Man(b1-4)GlcNAc(b1-4)GlcNAc
Method in brief: as §1

[27] = target: Fuc(a1-2)Gal(b1-4)GlcNAc(b1-2)Man(a1-3)[Fuc(a1-2)Gal(b1-4)GlcNAc(b1-2)Man(a1-6)]Man(b1-4)GlcNAc(b1-4)[Fuc(a1-6)]GlcNAc
Method in brief: as §1

[28] = target: Fuc(a1-2)Gal(b1-4)GlcNAc(b1-2)[Fuc(a1-2)Gal(b1-4)GlcNAc(b1-4)]Man(a1-3)[Fuc(a1-2)Gal(b1-4)GlcNAc(b1-2)Man(a1-6)]Man(b1-4)GlcNAc(b1-4)GlcNAc
Method in brief: as §1

[29] = target: Fuc(a1-2)Gal(b1-4)GlcNAc(b1-3)Gal(b1-4)GlcNAc
Method in brief: as §1

[30] = target: Fuc(a1-2)Gal(b1-4)GlcNAc(b1-3)Gal(b1-4)GlcNAc(b1-2)Man(a1-3)[Fuc(a1-2)Gal(b1-4)GlcNAc(b1-3)Gal(b1-4)GlcNAc(b1-2)Man(a1-6)]Man(b1-4)GlcNAc(b1-4)GlcNAc
Method in brief: as §1

B1: SP16664D-bth-476-27-476 (Bacteroides thetaiotaomicron) (protein)
chain: DDLEVGKNIDESAYSGIYENNAYLRDGKSNLVSKVVELHGETYATTVKMGLSKTPNTATSAKVKIDAAYLETYNKAHNTDFALYPQDLVTFANEGILTVNANTKSAEVEMTIRAGEGLQEDKTYAIPVAISDQSSDITIKDEDAKHCIYLVKDMRNAGDAYKGEGVMQGYLFFEVNDVNPLNTLSFQLENGKLLWDVVVLFAANINYDAEAGRPRVQCNPNVQYLLDNNETLLQPLRRRGVKVLLGLLGNHDITGLAQLSEQGAKDFAREVAQYCKAYNLDGVNYDDEYSNSPDLSNPSLTNPSTAAAARLCYETKQAMPDKLVTVFDWGQMYGVATVDGVDAKEWIDIVVANYGSAAYPIGQMTKKQCSGISMEFNLGGGGSLSASKAQSMIDGGYGWFMGFAPSPAKYGSVFSRLQGGGEVLYGSNVAAPTIFYKKNDPTPYKYPDDL
- glycan array binding signal (z-score) [1]: -0.249
- glycan array binding signal (z-score) [2]: -0.161
- glycan array binding signal (z-score) [3]: -0.136
- glycan array binding signal (z-score) [4]: -0.198
- glycan array binding signal (z-score) [5]: 0.123
- glycan array binding signal (z-score) [6]: -0.163
- glycan array binding signal (z-score) [7]: -0.266
- glycan array binding signal (z-score) [8]: -0.112
- glycan array binding signal (z-score) [9]: 0.254
- glycan array binding signal (z-score) [10]: -0.211
- glycan array binding signal (z-score) [11]: -0.154
- glycan array binding signal (z-score) [12]: 0.031
- glycan array binding signal (z-score) [13]: -0.301
- glycan array binding signal (z-score) [14]: -0.152
- glycan array binding signal (z-score) [15]: -0.164
- glycan array binding signal (z-score) [16]: 0.027
- glycan array binding signal (z-score) [17]: -0.043
- glycan array binding signal (z-score) [18]: -0.085
- glycan array binding signal (z-score) [19]: -0.246
- glycan array binding signal (z-score) [20]: -0.24
- glycan array binding signal (z-score) [21]: -0.129
- glycan array binding signal (z-score) [22]: -0.193
- glycan array binding signal (z-score) [23]: 0.006
- glycan array binding signal (z-score) [24]: -0.251
- glycan array binding signal (z-score) [25]: -0.112
- glycan array binding signal (z-score) [26]: -0.079
- glycan array binding signal (z-score) [27]: 0.161
- glycan array binding signal (z-score) [28]: 0.131
- glycan array binding signal (z-score) [29]: -0.168
- glycan array binding signal (z-score) [30]: 0.261

Source: the supplement of paper PMC8728848
